The supplement of paper PMC3334620
Over roughly 33,000 sequences, “E-score (-0.5 to 0.5)” has its median near -0.056; the highest 2% begin near 0.38. This is one part of the list.

molecular target: Stb4 (UniProt P50104); assay: PBM E-score (8-mer binding enrichment) (E-score (-0.5 to 0.5)); higher = stronger / more preferred TF binding; most listed sequences are background and not binding sites; settings: protein concentration: 200 nM; construct: GST-DNA-binding domain
Procedure, shortened: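 Detection of bound protein used fluorescent anti-GST, with scans normalised by masliner. The proteins were GST-tagged yeast transcription factors applied at about 100-200 nM to universal all-10-mer Agilent arrays made double-stranded by primer extension. Each ungapped eight-base word, pooled with its reverse complement, was scored with an E-score from the Universal PBM Analysis Suite.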

Row | Sequence | PBM E-score
1 | CTTCGTCA | -0.177
2 | CGATACAC | -0.0871
3 | CCCGCCAC | 0.119
4 | TACGCCAA | -0.259
5 | AAAGGGCG | -0.101
6 | CGCCGAGA | 0.361
7 | AATATATG | 0.0875
8 | ACACGGGC | 0.198
9 | AGTACTCC | 0.0979
10 | CGTCAGCA | -0.142
11 | GATCTAAC | -0.0701
12 | AATTTTCT | 0.0431
13 | AACAGTCT | -0.182
14 | AACCAATA | -0.0126
15 | AAGTGTTG | 0.032
16 | CCCCTCCG | 0.22
17 | TACAGTCA | -0.187
18 | AACGAACC | -0.118
19 | CCAGTTGC | -0.0304
20 | TGCCCCCA | -0.311
21 | ACAGCGAA | -0.113
22 | TGAGAGCA | -0.178
23 | ATCATTAA | 0.0733
24 | CATCAGCA | -0.0939
25 | CGTGGCTA | -0.164

Row | Sequence | PBM E-score
26 | ACCGTTCG | 0.137
27 | CATTGGGA | -0.114
28 | AATCAATA | -0.0212
29 | GATCCATC | 0.141
30 | ACGAAGAC | -0.242
31 | CGCTCTGA | -0.111
32 | CCCCGGTC | 0.174
33 | CAAGAGGC | -0.305
34 | CCTTCGAC | -0.143
35 | GATCTCTA | -0.0683
36 | ACTTAACG | -0.264
37 | CACGCTGC | -0.0655
38 | AGGTCCAC | -0.122
39 | AAAGCGGT | 0.0797
40 | ATGTTCGC | -0.118
41 | AAATCTGT | -0.0754
42 | CAGTGTTC | 0.0908
43 | CCACTGCG | -0.0112
44 | ATCTCGTC | 0.00476
45 | AGCCCAAG | -0.0203
46 | AAAATAGT | -0.147
47 | ACAAGCGA | -0.0167
48 | GAGCGGCC | 0.0657
49 | CCTGATAC | -0.148
50 | CGCCTTTA | -0.0578

Row | Sequence | PBM E-score
51 | CAATTATA | -0.0776
52 | CGGTAGTA | 0.189
53 | CCAGTCTA | -0.238
54 | GCTTGTGA | -0.242
55 | ACGGGTGC | 0.222
56 | GCTGCCTA | -0.191
57 | AAATCTAC | 0.00968
58 | ACCTGTCA | -0.117
59 | CACCTATG | -0.121
60 | CATGTTCC | 0.115
61 | GCGTGCTA | -0.29
62 | ATAGATGG | -0.227
63 | CTGCTCTA | -0.191
64 | CGGCACGA | 0.296
65 | ACACCTAG | -0.277
66 | GCCCAATA | -0.00539
67 | ATTGTCAC | -0.122
68 | AGAGACCG | 0.018
69 | CCTAACCA | -0.216
70 | TCACCAGA | -0.211
71 | GGGTAGCA | 0.209
72 | CCCCGCTA | 0.126
73 | GGTCGTTA | -0.108
74 | ATGTTGCA | -0.216
75 | AAAGGTCA | -0.138

Row | Sequence | PBM E-score
76 | GTGCCACA | -0.103
77 | AGCGACGA | -0.265
78 | TACCATAA | -0.0955
79 | GGGACGAC | -0.0514
80 | TACAATAA | -0.141
81 | CGTTAAAA | -0.106
82 | CGGGTAAG | 0.336
83 | ACTATCCC | -0.044
84 | GGAACACA | 0.0485
85 | ACCCCCGG | 0.209
86 | AAGAGCGC | -0.202
87 | CGGCCGTC | 0.0972
88 | CATCCGAA | 0.476
89 | CACTGCCC | -0.0371
90 | AGGCGGCG | -0.0568
91 | AAAGCGGA | 0.242
92 | CATGGAGC | -0.231
93 | GCCGTATA | 0.107
94 | GCACCTCC | 0.0311
95 | CTTGGAGC | -0.228
96 | CCGCATAA | 0.288
97 | CCAAGAAG | -0.106
98 | CTTTCGTC | -0.0646
99 | AAATCTTA | -0.0414
100 | CTGACATA | -0.126

Row | Sequence | PBM E-score
101 | ACTATTCG | -0.0568
102 | CGGCACTA | 0.331
103 | AGATGCGC | -0.0689
104 | ACAGTAGC | -0.114
105 | GATTGCAA | 0.0448
106 | CGAACTAC | 0.2
107 | ACTATAAC | -0.201
108 | AGAGGTCC | 0.0132
109 | CTGAGAGC | -0.138
110 | ACGTAGAC | -0.197
111 | GCCGACGA | 0.285
112 | CGATTCGC | 0.0552
113 | GACGAGAA | -0.169
114 | GGCGCACA | 0.0503
115 | AGAAAAGC | -0.141
116 | CGTAAAGC | -0.31
117 | TAATATCA | -0.159
118 | ATCTTACA | -0.15
119 | CTCATCCA | -0.204
120 | TTGGGAAA | -0.079
121 | CCCGGTAG | 0.254
122 | ACCGAGCC | 0.356
123 | CCAATCGG | 0.18
124 | TACTAGGA | -0.0288
125 | AGGACACT | -0.176

Row | Sequence | PBM E-score
126 | ATCATTCA | -0.0577
127 | CGATTAGC | 0.111
128 | AACGGATC | 0.306
129 | CGCTAGAG | -0.165
130 | CTTCAGGC | -0.132
131 | GTGTAAGA | -0.221
132 | GGAACGAA | 0.161
133 | ACCCCTTA | -0.186
134 | CTAGAGAG | -0.221
135 | CTACCGTC | 0.0657
136 | GAGGTGTA | 0.00625
137 | CAAGGGTG | -0.186
138 | CGGGTTAC | 0.205
139 | ACTTTGCT | -0.0436
140 | GCGGATTA | 0.0668
141 | TAAGGTAA | -0.0267
142 | GCTGCAGC | 0.0465
143 | GCCTTTAA | -0.0779
144 | AATTCGGC | 0.357
145 | CGTCATAC | -0.02
146 | GAGAGAGA | -0.0487
147 | GCTTCGAA | -0.121
148 | CTGCGCGA | -0.106
149 | ATATGTGG | -0.272
150 | AGACAACT | -0.256

Row | Sequence | PBM E-score
151 | AGTTCCCC | 0.138
152 | AAAGCATC | 0.174
153 | TACTCGAA | -0.25
154 | AAGTAAGG | -0.0235
155 | ATGGGGAA | -0.0799
156 | GTGATCAC | 0.176
157 | AATCGACC | 0.0569
158 | AAGGGGGC | -0.209
159 | AGTGAAGC | -0.163
160 | GGTAAACA | 0.12
161 | AGCTGAAC | -0.119
162 | AAATCTGG | 0.0311
163 | AACGGTAT | -0.0638
164 | CGCGGATC | 0.263
165 | CGCACAGC | 0.0145
166 | AATGGGTA | -0.0523
167 | GCCCCTCC | 0.204
168 | AGGACTTA | -0.173
169 | CCTGCATA | 0.0335
170 | CCCAGTAC | -0.185
171 | AATGTGCC | 0.103
172 | GGGAGACA | 0.146
173 | CCGCGAGC | 0.173
174 | GCGTTACC | -0.00688
175 | GTGTCGCA | -0.0287

Row | Sequence | PBM E-score
176 | GAGTAGCC | -0.00602
177 | TCCTTTAA | 0.0266
178 | CCCGCGTC | 0.25
179 | CGAGTGAC | -0.0128
180 | ACTGTGGG | -0.269
181 | ATATAATG | -0.163
182 | CGTAGATA | -0.00493
183 | CCGGGCAA | 0.223
184 | AGATTGCA | 0.0801
185 | GCGACACA | -0.0947
186 | ATCGTAGG | -0.21
187 | CACCAGTC | -0.162
188 | GGTACCTA | -0.0355
189 | CGATTAGA | -0.0351
190 | GTGGTGGA | -0.0396
191 | CCCACAGA | -0.234
192 | CGGATAGA | 0.454
193 | ATCAGATA | -0.209
194 | ATCTTAGG | -0.179
195 | AACCTCGT | -0.062
196 | AGACTAGG | -0.205
197 | CAAGCGTG | -0.256
198 | TCTATACA | -0.163
199 | GACTAAAC | -0.113
200 | ACCCCCCA | -0.245

Row | Sequence | PBM E-score
201 | CGACTGAA | 0.0189
202 | CTGTACTC | -0.298
203 | ACAATGGA | 0.0158
204 | ACGCTTCC | 0.183
205 | CGCTCCGA | 0.346
206 | GGTGGCCA | -0.0956
207 | GAAAGATA | 0.0434
208 | CGTACTAA | -0.0489
209 | AGTGGGCG | -0.066
210 | AATCCGAC | 0.346
211 | GGGCCATA | 0.123
212 | CTTCGCAA | -0.193
213 | TATAGCGA | -0.106
214 | ACGGATAC | 0.407
215 | CACCAGCC | 0.131
216 | CTTTGACA | -0.0553
217 | ACCGGTAG | 0.0233
218 | AAACATGA | -0.144
219 | TCTCTTAA | -0.0883
